Results published in the supplement of paper PMC11417369.
± gives the standard deviation of the averaged measurements. This is one part of the list.

What follows are sequences tested on PfAP2-EXP AP2 domain (GST-tagged) (assay: gcPBM binding intensity (ln(normalized median fluorescence intensity)); higher = stronger DNA binding).
How it was run: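 Probes on an Agilent 4 × 180k array were primer-extended, double-stranded and 36 bp long, taken from intergenic genomic regions, with negative controls added. GST-tagged P. falciparum DNA-binding domains from E. coli, about 25 μg on average, were applied to the array for 1 h in 1× PBS containing 1% milk, 0.2 mg/ml BSA, 0.5% salmon testes DNA and 0.03% Triton X-100. Binding intensity, obtained after Alexa488 anti-GST antibody detection and a 488 nm scan, is the highest Masliner-normalised natural-log median intensity across replicate spots of either probe orientation.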

Sequence	gcPBM binding intensity (ln)
AAAATTTAAAAATGGACACACACAAAAAATAATACT [CACACA_site7972]	9.09 ± 0.44
CATCCATTATTAATATGTACATATGTATATATATTA [XGTACX_site1318]	8.61 ± 0.3
CACATACACATACAAACACACATTATATATATATAT [CACACA_site8460]	10 ± 0.38
TTTTTTTTTTTTTTTTTTTTTTTCTTTATTTTTTTT [CACACA_negctrl_site703]	7.95 ± 0.5
GAAAAAAAAAAAAGGGGTACATTTATTTTATCAATA [XGTACX_site8331]	8.29 ± 0.26
TATAAATATAGACACACACACACACCGAAGCGTAGC [CACACA_site6180]	8.69 ± 0.53
TCGTCACTTTAATATTGTACATATATATATATATAT [XGTACX_site8046]	10.3 ± 0.13
AAAATTAATAAATAAACACACATATTTATATTTATA [CACACA_site7266]	8.03 ± 0.41
GATATATATATTCACACACACATGGAAATATATATA [CACACA_site382]	8.56 ± 0.28
ATATATATATGTGCCAGTACACATGTATACATTATA [XGTACX_site3899]	9.59 ± 0.14
CATATATAAAAAAACACACACATATTTATATTTATA [CACACA_site6682]	8.43 ± 0.34
AAAAAAATTTATAAATATTTTATTAATATATTTACC [GTGCAC_negctrl_site690]	8.11 ± 0.27
CATATTTCTTACATTTGTACTTAATAAAATTAATCA [XGTACX_site7224]	8.41 ± 0.39
ACACAAAACAAAAAGGTGCTGTATAAATGGGTGTAT [GTGCAC_site9905]	9.12 ± 0.42
TATCACATATTATGATGTACAAGGTTTCTGACTAAT [XGTACX_site2763]	8.39 ± 0.36
TTGTCTGACTAATTTTTTTCTGTTTGTACGTTCTTA [GTGCAC_negctrl_site602]	8.74 ± 0.49
TTTTTATACAACTTATAATACATCTGAAAATATAAA [XGTACX_negctrl_site36]	8.16 ± 0.42
ACAAAATAAATATGAACACACACATTTATGCCTTTA [CACACA_site8346]	8.35 ± 0.54
ATAATTATACATATTACACACTCTCTTGATCTTTTT [CACACA_site3853]	8.64 ± 0.42
ATTTCTTATTAAATTACACACAAAGTAAATAAATCT [CACACA_site3924]	8.36 ± 0.33
ATTTTAAATATGGAATGTACTTAAAAAAAATTTCAT [XGTACX_site5058]	8.26 ± 0.18
AATTAAATATTATAAACACACATATAGATTATTTTT [CACACA_site6538]	8.17 ± 0.49
TATAATAATATGGATTGTACATATATATTTAATTAA [XGTACX_site4327]	8.18 ± 0.21
AAATACATAACTTAAAATTTGTTCATATCTATACAT [TGCATGCA_negctrl_site249]	8.45 ± 0.33
